# Laboratory results as given in PubChem BioAssay AID1347073 (National Center for Advancing Translational Sciences (NCATS), 2019).
# Screen size: about 45,000 compounds; about 200 (0.44%) were called active. About 7% were inconclusive and are not listed. The call rests on the fitted dose curve; in most records, active means well fitted activation curve with a large enough effect; inconclusive means small, poorly fitted or top-dose-only effect; inactive means no such curve, though single readings can be large or run the other way. Some of the results follow.
# Test: qHTS of TDP-43 Inhibitors: NCGC Sytravon Library Screen; further: nearly all actives have a fitted effect of over 55% in size; on growth rescue (activation): 0% is about no effect
# Conditions: yeast TDP-43 toxicity rescue, BacTiter-Glo growth, 24 h; series mostly up to 46.1 µM; growth rescue (activation): at the top concentration
# Outline: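 TDP-43-expressing yeast, pregrown in raffinose, seeded at OD600 0.02 in galactose medium with compound for 24 hr at 30 deg C. Growth read by BacTiter-Glo luminescence, so rescue of toxicity appears as activation.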
# Potency means the concentration at half of the fitted maximal effect.
SMILES,growth rescue (activation),Potency
Cc1ccc(OC(C)C(=O)Nc2ccc(C)c(S(=O)(=O)Nc3ccc(C)cc3C)c2)cc1 (stereo unspecified),inactive: -4.95%,
CC(=C\c1ccccc1)/C=C1/SC(=O)N(CCCC(=O)Nc2ccc(C(=O)O)cc2)C1=O,inactive: 1.67%,
COc1ccc(N(CC(=O)Nc2nccs2)S(=O)(=O)c2c(C)[nH]c(=O)[nH]c2=O)cc1,inactive: -3.73%,
Cc1ccc(C2N(c3ccc(Cl)cc3)C(=O)N3CCCN23)cc1 (stereo unspecified),inactive: -2.19%,
Cc1ccc(CN2CCN(/N=C/c3cc(Br)cc(Br)c3O)CC2)cc1,inactive: -25.6%,
O=C(NNS(=O)(=O)c1ccc([N+](=O)[O-])cc1)c1ccc([N+](=O)[O-])cc1,inactive: -16.1%,
Cc1cccc(CN2C(=O)CSc3ccc(C(=O)NC4CC4)cc32)c1,inactive: 8.77%,
O=S(=O)(c1cccc(-c2nnc(SC(F)F)n2-c2ccccc2)c1)N1CCCCC1,inactive: -11.1%,
CCc1ccc2c(c1)C(NC(C)=O)C(=O)N2CCN1CCOCC1 (stereo unspecified),inactive: 5.32%,
COc1ccc(CCNC(=O)c2c(Cl)ccc(Cl)c2OC)cc1OC,inactive: 22.3%,
O=C(/C=C/c1ccc(Cl)cc1)NC(=S)Nc1ccc(C(=O)O)cc1,inactive: -1.94%,
COC(=O)C1=C(C(=O)c2ccc(C)cc2)C(c2ccc(O)c(OC)c2)n2nnnc2N1 (stereo unspecified),inactive: 26.5%,
O=C(NCc1cccnc1)c1ccccc1NS(=O)(=O)c1ccc(F)cc1,inactive: 5.06%,
Cc1ccc(CN2C(=O)C(O)(CC(=O)c3ccc(C)cc3)c3ccccc32)cc1 (stereo unspecified),inactive: 2.26%,
Cc1cc(C(=O)NCc2ccc(S(N)(=O)=O)cc2)ccc1[N+](=O)[O-],inactive: 11.3%,
CCN(CC)CCn1c2ccccc2c2cnc(N=CN(C)C)c(C#N)c21,inactive: 13.8%,
COc1ccc(Br)cc1/C=C(\C(=O)O)c1ccc(S(=O)(=O)N2CCCC2)s1,inactive: 14.1%,
CCCCN(C=O)c1c(CC)nc2c(OCc3ccc(Cl)cc3Cl)cccn12,inactive: 0.0455%,
O=C(NCCc1ccc(Cl)cc1)c1n[nH]c2ccccc12,inactive: 13.3%,
Cc1ccc(S(=O)(=O)NCc2cn3c(C)csc3n2)cc1,inactive: 7.69%,
CN(C)CCNC(=O)C1Cc2c(-c3ccccc3Oc3ccccc3)ccnc2O1 (stereo unspecified),inactive: -7.21%,
Cc1oc2ccc(OC(=O)COc3c(F)c(F)c(F)c(F)c3F)cc2c1C(=O)OC(C)C,inactive: -4.24%,

SMILES,growth rescue (activation),Potency
CCC(=O)NC(=S)Nc1cc(C(=O)O)ccc1OC,inactive: -2.39%,
COc1ccc(CNC(=O)CN(Cc2ccc(F)cc2)C(=O)CCC(=O)Nc2nccs2)cc1,inactive: 9.21%,
Cc1cc(C(=O)N(NC(=O)C(C)C)c2ccccc2)cs1,inactive: -9.61%,
O=C(Nc1ccccn1)c1cc(-c2cccnc2)nc2ccc(Br)cc12,inactive: -23.9%,
O=C(NCCCn1ccnc1)/C(=C/c1ccco1)NC(=O)c1ccco1,inactive: -8.78%,
O=C(NCCc1ccc(Cl)cc1)c1cc2ccccn2n1,inactive: 21.1%,
COc1ccc(Nc2nc3cc(-c4ccccc4C)sc3c(=O)n2C)cc1OC,,active: 20 µM
Cc1c(CCC(=O)O)c(=O)oc2c(C)c(OCc3ccccc3Cl)ccc12,inactive: 2.21%,
COc1ccc(C(=O)CSc2[nH]c(=O)cc(C(F)(F)F)c2C#N)cc1,inactive: -9.69%,
Cc1cc(C)nc(NC(=O)c2cc(Br)ccc2Cl)n1,inactive: 3.69%,
COc1cc(CCC(=O)N2CCN(c3ccccc3Cl)CC2)cc(OC)c1OC,inactive: 21.1%,
COC(=O)c1cc(Cl)cc(Cl)c1OS(=O)(=O)N(C)C,inactive: 25%,
CC(C)c1csc(CN2CCC(N3CCC(C(=O)N4CCOCC4)CC3)CC2)n1,inactive: -2.35%,
Cc1ccc(C(=O)Nc2ccc(N3CCN(C)CC3)cc2)cc1,inactive: 2.23%,
Cc1cc(C)c(NC(=O)c2cc(C(=O)O)ccc2C(=O)O)c([N+](=O)[O-])c1,inactive: -2.66%,
CCc1ccc(N(C(=O)c2snc(C(N)=O)c2N)C(C(=O)NCC2CCCO2)c2ccco2)cc1 (stereo unspecified),inactive: 2.32%,
Cc1cc(/C=C(\C#N)C(=O)NCc2ccco2)c(C)n1-c1cccnc1,inactive: 12%,
CSc1ccc(C#N)cc1NC(=O)c1ccccc1,inactive: 10.5%,
Cc1ccccc1C(=O)NC1CCN(CC(=O)NC2CCCCC2)CC1,inactive: -20.9%,
COC(=O)c1cc(NC(=O)CC2Oc3ccccc3NC2=O)cc(C(=O)OC)c1 (stereo unspecified),inactive: 6.53%,
CCOC(=O)COc1cc([N+](=O)[O-])cc2cccnc12,inactive: 9.09%,
Cn1ccnc1C(=O)c1ccc(Cl)c(S(=O)(=O)N2CCOCC2)c1,inactive: -17.7%,

SMILES,growth rescue (activation),Potency
CCN(CC)C(=O)Cn1nc(-c2ccc(Cl)cc2)c2ccccc2c1=O,inactive: -5.48%,
CC(C)[C@H](NC(=O)NCCc1ccc(F)cc1)C(=O)O,inactive: 7.27%,
O=[N+]([O-])c1ccc(C=Nc2cccc3ccccc23)s1,inactive: -94%,
CCOC(=O)C1(CCc2ccccc2)CCN(C(=O)CCc2cnccn2)CC1,inactive: 19.2%,
O=C1N=C(N2CCCC2)CN1c1ccccc1,inactive: -5.45%,
CC(=O)Nc1ccc(SCC(=O)OCC(=O)NC(=O)NC2CCCC2)cc1,inactive: 2.94%,
O=C(c1ccc(-c2cc3ccccc3oc2=O)cc1)N1CCN(c2ccc(Cl)cc2[N+](=O)[O-])CC1,inactive: 16%,
Cc1ccc(-c2nn3c(-c4ccc(C)cc4)nnc3c3ccccc23)cc1,inactive: 1.84%,
CN(C)CCCNc1ccc(S(N)(=O)=O)cc1[N+](=O)[O-],inactive: 4.26%,
COc1ccc(C(=O)N/C(=C\c2ccc3c(c2)OCO3)C(=O)N2CCOCC2)cc1,inactive: 2.19%,
CC(C)CNC(=O)c1cccc(NC(=O)COc2ccc([N+](=O)[O-])cc2)c1,inactive: 3.52%,
CN(c1ccccc1)S(=O)(=O)c1cccc(C(=O)OCC(=O)Nc2ccc(C(N)=O)cc2)c1,inactive: -4.06%,
O=C(Nc1ccc(NC(=O)c2cccs2)cc1)c1ccc2c(c1)OCO2,inactive: 25.2%,
Cc1ccc(C(O)c2ncc(-c3ccccc3F)[nH]2)cc1F (stereo unspecified),inactive: 4.18%,
COc1ccc(NC(=O)c2ccccc2)cc1NS(=O)(=O)c1ccc(F)cc1,inactive: 18.8%,
COc1ccccc1N(CC(=O)NC1CCCCC1C)S(=O)(=O)c1cccs1 (stereo unspecified),inactive: 4.08%,
O=C(CSc1ncccn1)Nc1cccc2ccccc12,inactive: 24.4%,
CCOc1cc(/C=N/NC(=O)c2ccc(-c3csc(Nc4ccc(C)cc4)n3)cc2)ccc1OCC(=O)O,inactive: 4.08%,
Cc1c(C)[n+](=O)c(-c2ccc(Br)cc2)c(C)n1[O-],inactive: -12.3%,
O=C(Cn1cnc2ccccc21)Nc1ccc(SC(F)F)cc1,inactive: 8.51%,
COc1ccccc1Nc1c2c(nc3ccccc13)CCC2,inactive: -22%,
CCCN1C(=O)c2[nH]nc(-c3ccc(F)cc3)c2C1c1ccccn1 (stereo unspecified),inactive: 9.45%,
